Measurements taken from PubChem BioAssay AID1030 (National Center for Advancing Translational Sciences (NCATS), 2008).
Hit rate of the full screen: of about 220,000 compounds, about 16,000 (7.3%) were called active. This list was built around the results that the source calls inconclusive (neither active nor inactive); the mix of calls is not that of the screen. Calls come from the whole dose curve; as a rule, active = well fitted inhibition curve with a large enough effect (not every such curve was filed as active); inconclusive = small, poorly fitted or top-dose-only effect, or another doubt; inactive = no such curve, though single readings can be large or run the other way. No potency is given beside an inconclusive call; the fits are too rough.

Biological target: Aldehyde dehydrogenase 1A1 (Homo sapiens) (UniProt P00352)
Assay: qHTS Assay for Inhibitors of Aldehyde Dehydrogenase 1 (ALDH1A1)
Conditions: Purified ALDH1A1, NADH fluorescence, propionaldehyde substrate; series mostly up to 75.3 µM
Potency is the fitted concentration of half-maximal effect; tags give direction and shape of the fitted curve.

UniProt P00352, sequence (P00352 whole entry, looked up): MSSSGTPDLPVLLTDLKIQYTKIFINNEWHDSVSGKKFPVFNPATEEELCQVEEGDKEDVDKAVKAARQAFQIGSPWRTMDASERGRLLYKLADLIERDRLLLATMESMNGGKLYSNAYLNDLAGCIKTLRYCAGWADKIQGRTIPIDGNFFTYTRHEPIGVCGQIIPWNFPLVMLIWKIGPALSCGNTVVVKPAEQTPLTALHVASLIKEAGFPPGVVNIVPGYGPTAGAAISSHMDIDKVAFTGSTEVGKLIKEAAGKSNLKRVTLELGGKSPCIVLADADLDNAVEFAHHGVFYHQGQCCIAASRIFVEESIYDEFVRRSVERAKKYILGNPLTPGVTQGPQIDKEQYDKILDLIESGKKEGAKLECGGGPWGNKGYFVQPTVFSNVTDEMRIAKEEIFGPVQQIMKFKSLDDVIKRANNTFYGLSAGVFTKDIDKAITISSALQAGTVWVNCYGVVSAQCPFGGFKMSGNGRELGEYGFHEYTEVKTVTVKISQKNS

| SMILES | Potency |
| --- | --- |
| CO[C@]1(NC(=O)CSCC#N)C(=O)N2C(C(=O)O)=C(CSc3nnnn3C)CS[C@H]21 | inactive |
| O=C(/C=C/Nc1ccc([N+](=O)[O-])cc1Br)c1cccc2ccccc12 | inconclusive [inhibitor, single point] |
| CC(C)(C)C(=O)OCc1nc(-c2ccc(C(F)(F)F)cc2)cs1 | inconclusive [inhibitor, single point] |
| CC(C)CCNC(=O)C(c1ccncc1)N(Cc1cccs1)C(=O)Cn1nnc(-c2ccc(F)cc2)n1 (centres undefined) | inconclusive [inhibitor, single point] |
| CCOC(=O)c1cnn(-c2ccccc2)c1NC(=O)CCl | inconclusive [inhibitor, single point] |
| O=C(CN1C(=O)/C(=C\c2ccc(C(F)(F)F)cc2)Sc2ccccc21)NCc1ccco1 | inactive |
| Cc1cccc(-c2nc3c(c(SCC(=O)N(C)C)n2)CCCC3)c1 | inconclusive [inhibitor, single point] |
| COc1cccc(NC(=S)N2CCN(C/C=C/c3ccccc3)CC2)c1 | inconclusive [inhibitor, partial curve] |
| Cc1ccc(C)c(NC(=O)C2CC(O)CN2C(=O)OCc2ccccc2)c1 (centres undefined) | inactive |
| O=C(Nc1ccccc1)c1cccc(S(=O)(=O)Nc2ccccn2)c1 | inconclusive [inhibitor, single point] |
| O=C(c1ccncc1)c1ccc(N2CCN(C3CC(=O)N(Cc4ccccc4)C3=O)CC2)cc1 (centres undefined) | inactive |
| Cc1cc(NC(=O)CCl)n(-c2nc3ccccc3s2)n1 | active: 3.98 µM |
| COc1ccc(-c2nn(-c3ccccc3)cc2/C=C(\C#N)S(=O)(=O)c2ccccc2)cc1OC | active: 8.91 µM |
| NC(=O)c1ccc(-c2ccc(Br)cc2)o1 | inconclusive [inhibitor, partial curve] |
| O=C(c1cccc([N+](=O)[O-])c1)N1CCOCC1 | inactive |
| C/C=C(\C)CN1CCc2cc(OC)c(OC)cc2C1 | inactive |
| CN(C)c1ccc(NC(=O)CC(NCc2ccccn2)C(=O)O)cc1 (centres undefined) | inconclusive [inhibitor, single point] |
| CCOC(=O)N1CCC(Nc2ccc(N3C(=O)C4CCCCC4C3=O)cc2[N+](=O)[O-])CC1 (centres undefined) | inconclusive [inhibitor, partial curve] |
| Cc1ccc(C)c2nc(SCC(=O)N3CCCc4ccccc43)c(C#N)cc12 | inconclusive [inhibitor, single point] |
| COc1cccc(NC(=S)N(CCCN2CCCC2)Cc2cccn2Cc2ccc(Cl)cc2)c1 | inactive |
| O=C(CSc1nnnn1-c1ccccc1)NC(=O)Nc1ccc2c(c1)OCCO2 | inconclusive [inhibitor, partial curve] |
| COc1cccc([C@@H]2Oc3ccc(Br)cc3C(=O)[C@H]2OC(=O)Nc2cc(OC)c(OC)c(OC)c2)c1 | inactive |
| CN(C)C(CNc1ncnc2sc3c(c12)CCCC3)c1ccco1 (centres undefined) | inactive |
| CC1=C(C(=O)OC2CCCC2)C(c2ccc(C)o2)C2=C(CC(c3cccs3)CC2=O)N1 (centres undefined) | active: 14.1 µM |
| COc1ccc(S(=O)(=O)Nc2cccc(F)c2C)cc1C(=O)N1CCOCC1 | inactive |

| SMILES | Potency |
| --- | --- |
| COc1ccc(N2CCN(C(c3ccccc3)c3nnnn3Cc3ccc(F)cc3)CC2)cc1 (centres undefined) | inactive |
| COCCCNC(=O)Nc1ccc2c(c1)N(C)C(=O)CS2 | inactive |
| O=c1c(-c2ccc(F)c(F)c2)nc2cncnc2n1Cc1ccccc1 | inactive |
| CCN(CC)S(=O)(=O)c1ccc(NC(=O)CN(c2cccc(F)c2)S(C)(=O)=O)cc1 | inconclusive [inhibitor, single point] |
| CCOC(=O)N1CCN(C(=O)C(=O)NNC(=O)COc2ccc(Cl)cc2)CC1 | inactive |
| COC(=O)CCC(=O)Oc1ccc(OC(=O)CCC(=O)OC)cc1 | inconclusive [inhibitor, single point] |
| CCOc1ccc(C(C)=O)cc1CSc1nc(C)cc(C)n1 | active: 3.98 µM |
| CCOC(=O)C(=O)Nc1cc([N+](=O)[O-])ccc1C | inconclusive [inhibitor, single point] |
| C/C(=N\NS(=O)(=O)c1ccccc1)c1cc(Cl)cc(Cl)c1O | inconclusive [inhibitor, single point] |
| Cn1c(Cn2c(=O)sc3ccccc32)nnc1SCC(N)=O | inactive |
| O=C(CC1C(=O)NCCN1Cc1cccc(Oc2ccccc2)c1)NCC1CCOCC1 (centres undefined) | inconclusive [inhibitor, partial curve] |
| CSc1ccc(/C=C(\C#N)C(=O)NC2CCCCC2)cc1 | inconclusive [inhibitor, single point] |
| Cc1ccccc1Cn1ccc(NC(=O)c2cc3ncc(Br)cn3n2)n1 | inconclusive [inhibitor, partial curve] |
| CCCN1CC=C2C(C#N)=C(N)C(C#N)(C#N)C(c3cccc(OC)c3OC)C2C1 (centres undefined) | inconclusive [inhibitor, partial curve] |
| Cc1cc(-c2c(C(=O)N3CCOCC3)c(C)nn2-c2ccccc2)no1 | inactive |
| COc1ccc(NCC(=O)n2c(C)c(C)c3ccccc32)cc1OC | active: 7.08 µM |
| CCn1c(C)nc2cc(C(=O)n3cc(C(=O)c4cc(F)ccc4O)cn3)ccc21 | active: 1.41 µM |
| O=[N+]([O-])c1c(NCCO)cc(N2CCN(Cc3ccc4c(c3)OCO4)CC2)c2nonc12 | inconclusive [inhibitor, single point] |
| O=[n+]1c2c(n([O-])c3cc(F)ccc31)CCCC2 | inactive |
| COc1ccc(Cc2noc(CN3CCCN(Cc4ccc(F)cc4)CC3)n2)cc1OC | inactive |
| COc1cccc(/C=C/C(=O)N2CCN(c3n[nH]c(=O)[nH]c3=O)CC2)c1OC | inactive |
| Cc1cc(C)c2[nH]c(=O)c(CN(Cc3ccc4c(c3)OCO4)Cc3nnnn3C3CCCC3)cc2c1 | inconclusive [inhibitor, partial curve] |
| C=CCSc1nnc(Cc2c(C)[nH]c3ccccc23)o1 | inactive |
| C=CCn1c(SCC(=O)N2CCc3ccccc3C2)nc2sc(C)cc2c1=O | inconclusive [inhibitor, partial curve] |
| CCOc1ccc2nc(NC(=O)C3CCCN(S(=O)(=O)c4cccs4)C3)sc2c1 (centres undefined) | inconclusive [inhibitor, single point] |

| SMILES | Potency |
| --- | --- |
| Clc1ncc(CN2CCN(Cc3ccccc3)CC2)s1 | inconclusive [inhibitor, single point] |
| c1coc(CN(Cc2cccs2)Cc2nnnn2C2CCCCC2)c1 | inconclusive [inhibitor, single point] |
| Cc1cc(C)cc(-n2nnnc2SCC(=O)Nc2cccc(NC(=O)c3ccco3)c2)c1 | inconclusive [inhibitor, full curve] |
| CCOC(=O)CNc1c(N2CCN(c3ccccn3)CC2)c(=O)c1=O | inconclusive [inhibitor, partial curve] |
| CC(=O)n1cc(C(C[N+](=O)[O-])SCCN)c2ccccc21 (centres undefined) | inactive |
| O=C(Nc1nc(-c2ccccc2)cs1)c1ccc(Br)o1 | inconclusive [inhibitor, partial curve] |
| COC(=O)c1ccc(NC(=S)Nc2ccccn2)cc1 | inactive |
| Cc1cc(C)c(-c2cc(C(=O)Nc3c(C)n(C)n(-c4ccccc4)c3=O)[nH]n2)c(O)c1 | inconclusive [inhibitor, single point] |
| OCCOCCN1CCN(C(=S)Nc2ccccc2)CC1 | inactive |
| Cc1ccc(/C=C/C(=O)N2CCN(c3ccc(F)cc3)CC2)o1 | inconclusive [inhibitor, single point] |
| O=Cc1nc(-c2ccccc2Cl)n2ccccc12 | inconclusive [inhibitor, partial curve] |
| CC(C)(C)c1ccc(-c2noc(CCC(=O)NCC3CCCO3)n2)cc1 (centres undefined) | inactive |
| C=CCn1c(C)cc(C(=O)CSc2n[nH]c(N)n2)c1C | inactive |
| COCCn1c(=NC(=O)/C=C/c2ccccc2)sc2cc(NC(C)=O)ccc21 | inactive |
| CNc1cc(-c2ccccc2CN(C)C)ncn1 | inconclusive [inhibitor, partial curve] |
| S=C(NCc1ccco1)N1CCN(c2ccccn2)CC1 | inconclusive [inhibitor, single point] |
| COc1ccc(-c2cc(C(F)(F)F)nc(SCC(=O)N3CC(C)OC(C)C3)n2)cc1OC (centres undefined) | inconclusive [inhibitor, partial curve] |
| COc1ccc(OC)c(C2N(c3ccc(Cl)cc3)C(=O)C3CCCN32)c1 (centres undefined) | inconclusive [inhibitor, single point] |
| COc1ccccc1OCCNC(=O)C1CCCCC1 | inactive |
| N#CC1=C2N=C(N)c3c(sc4c3CCCCC4)N2C2=C(C(=O)CCC2)C1c1ccccc1 (centres undefined) | active: 5.01 µM |
| COC(=O)N1CCC2(CCCN(Cc3cc(C(F)(F)F)cc(C(F)(F)F)c3)C2)CC1 | inconclusive [inhibitor, partial curve, poor fit] |
| COc1ccc(C(=O)c2cnc3cc4c(cc3c2C)OCO4)cc1 | inconclusive [inhibitor, single point] |
| CCCNC(=O)c1ccccc1NC(=O)CN(c1ccccc1OCC)S(C)(=O)=O | inconclusive [inhibitor, single point] |
| CCN(Cc1ccccc1)C(=O)CS(=O)(=O)c1ccccc1 | inactive |
